Laboratory results published in the supplement of paper PMC11417369.
This is one part of the list.

These sequences were tested on PF3D7_0420300 AP2 domain 1 (GST-tagged) (assay: gcPBM binding intensity (ln(normalized median fluorescence intensity)); higher = stronger DNA binding).
How it was run: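 Plasmodium falciparum DNA-binding domains carrying a GST tag were expressed in E. coli and applied for 1 h, at about 25 μg on average, to an Agilent 4 × 180k array. The array held primer-extended double-stranded 36-bp intergenic genomic probes together with negative controls, and binding took place in 1× PBS with 1% milk, 0.2 mg/ml BSA, 0.5% salmon testes DNA and 0.03% Triton X-100. An Alexa488 anti-GST antibody detected bound protein, and the array was scanned at 488 nm. Binding intensity is taken as the highest Masliner-normalised natural-log median intensity across replicate spots of either probe orientation.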

Sequence	gcPBM binding intensity (ln)
TATAAAAAGCATAACACACACATGTCAATATATATA [CACACA_site1111]	9.86
ATAGAACAGAAAAGGCGTACAATAATATGTAAACAA [XGTACX_site2828]	9.49
AAAAAAAAAATATGTACACACATATATAATACATAA [CACACA_site1639]	9.57
AGAAAAGAGAAAAGTAGTACAAAGGATCATTTAAAA [XGTACX_site5294]	9.35
TTAAGTCCGTTAACAGTGCATTTTTTCTTTTATGTA [GTGCAC_site9867]	9.41
TAATGAAAAAATAAAAGAATAAATAAATAAATAAAT [TGCATGCA_negctrl_site130]	9.4
ATTAAAAAAATATAAACACACAAAAAAAAAATATAC [CACACA_site1100]	10.1
TACACGTTCTACATTTGTACTTAATTTATACATAAG [XGTACX_site1579]	9.31
TACGTCTTTTTTTTGGTGCATAATTTTTTTGTACAA	9.4
AATTTTGTTAAAAGGACACACAATTCAATATATTAA [CACACA_site647]	9.38
ATTACATGATATATCACACACACATATAGATATATA [CACACA_site7352]	9.82
GCTATTAATTTATAAGCACACAATATAAATATATAT [CACACA_site2251]	9.15
TATGTCGACATTTAAAGTACAAAAAAAAAAAAAAAA [XGTACX_site8985]	8.85
TATATTAAAATATTCACACACTAACGTAAATCATTG [CACACA_site5520]	9.41
ATTTATTTAAACAAATCACACACAAATATATATACA [CACACA_site8622]	9.68
CATACATAGATATATACACACATACCTATAAATACA [CACACA_site6513]	9.78
TATATATGTGTTATATACCCTTTTTTATATATTAAT [XGTACX_negctrl_site313]	9.53
TAAAAATCCACAAGCACACAAATGTACATATATATA [CACACA_site2462]	9.59
TTTCAAAATGTGTAAAATAAAAATAATATCATTACA [TGCATGCA_negctrl_site521]	9.08
ATGTGATATAAGTACACACACATATGTATATAGAAT [CACACA_site1823]	9.81
TTTTGTTTTGTTTTGTTTTGTTTTGTTTTATTTTAT [GTGCAC_negctrl_site383]	9.57
AATGTATATATGTAATGTACATATGTAATGTATATA [XGTACX_site6509]	9.42
AATATAGATATAACCACACACATACATCTAATTCTA [CACACA_site1760]	9.76

Sequence	gcPBM binding intensity (ln)
GAAAAGAACAAGAGCATGCACTTAATAAGAATAATA	9.21
TGTTTCTTATTTTTTTCACACACTAAACATTTCAAA [CACACA_site2218]	9.62
AATAAAAAAAGTTTTTTTTTTTTTTAAACAATAGAC [CACACA_negctrl_site1061]	9.01
AAAAATTTAATGAAATGTACATATATGTTATTAATA [XGTACX_site6091]	9.16
ATAATAATAATAAAAAGTACATTTAATTATATAGAA [XGTACX_site7742]	9.41
AATAACCACCAACACACACACATATATATATATATA [CACACA_site3540]	9.89
AAGAATGTTAATAGTACACACAATTATTATATAAAT [CACACA_site3739]	9.61
TATATGTTTTAAAAGTGTACTTTAGTTTCAATTTTT [XGTACX_site4269]	9.18
TAAATGCACATATACACACACCCAATTTTAAGTTTT [CACACA_site7428]	9.86
ACATCAAGAATTATTAAGAATACGGATAGATAAAAT [GTGCAC_negctrl_site261]	9.4
ATACATATTACATGTTGTACTCCAACAAAAATGCCC [XGTACX_site3201]	9.29
TTAATTTCATTTTCTACACACCTATCCTTTTTTTTT [CACACA_site772]	9.57
ATATATATATAATCAAGTACACAGTAATAAAAAGAA [XGTACX_site1070]	9.78
AATAATAACTGTAGGTGTACGTAAAAAAAAAATTAT [XGTACX_site3133]	9.43
ATTGTGTTCATCAGCACACACAACATCATGCAATAA [CACACA_site6960]	9.46
TTTTTTTTTTTTTGTTGTACAATACTTAATCATTAT [XGTACX_site3422]	9.04
TTTTTTTTTTTTGAAACATGCATTGTTTTATTCTTA [TGCATGCA_site15]	9.02
TCTATACCTATTCTTACACACATATGTATATATATA [CACACA_site563]	9.79
TATATATATGTATATGTGCACAGTTTTCTTATTAAA [GTGCAC_site9990]	9.24
TGGGCACCCATATACACACACAAATACAATGATAAA [CACACA_site4762]	9.7
AAAAAAAAAAAAATGTGTACATACATATATTTATAT [XGTACX_site3076]	9.19
GGAAAAGGTATCCGTTCACACATAAATGGATACCAT [CACACA_site5072]	9.13
TCTATATAGATTTGCACACATAAAAATGCTTATATA [CACACA_site2389]	9.27

Sequence	gcPBM binding intensity (ln)
ATTACATATTGATAAGTGCAAGTGTGAGAAATGTTA	9.32
AATATATTATATATATGTACATATGTGTATACATTT [XGTACX_site937]	9.24
TTTTATTTATTTTATTGTACATATATAAAACTATGA [XGTACX_site3476]	9.12
CAATCAAATGGACACACACACACCTAAACATAAAAG [CACACA_site5524]	10.2
ATTAAAAAATTACAAGCATGCTTGTTAAAATTTTTT [TGCATGCA_site941]	8.85
CTTTTTTTTTTAAATTGTACAAATGTGATGTAATAG [XGTACX_site3219]	8.98
TAAATATATATTATATGTACTTATATATATATATAT [XGTACX_site4448]	9.13
TTTTTCATTTTTAAAATAATTATAATATTATACATA [XGTACX_negctrl_site43]	8.95
TAAATCAGCCATAACACACATACATATATACATAAA [CACACA_site396]	9.6
AGCAAATAAATAAATAAATAAATAAATATATATATA [TGCATGCA_negctrl_site40]	9.23
ATAATTAACAAATACACACACACACGCCCACAAAAA [CACACA_site6389]	10.2
ATATATATGTGTAAAAGTACATATATTTTGAAATAT [XGTACX_site4024]	9.3
TTTTAATAAAAGCCCATGCACACCTTAGAAAGTTTT [CACACA_site346]	9.06
GGAAACAAAAAATATATACACACTAATCATAAAAAA [CACACA_site7890]	9.52
ATTAATATATTATCATGTACACAAAAATAATTTTAT [XGTACX_site7257]	9.13
TAAAAATATATATGATTGCACTTAGGACAATATATA	9.14
TATTCTCTCTTATGAACACACATTTTTATTTTCAAA [CACACA_site7554]	9.43
AAGAAAAATATATAAATAAATAAATATATAAATATA [CACACA_negctrl_site836]	9.12
AACTTGTATTTATACACACACACACTGTCTTTTTTT [CACACA_site7009]	10.3
TAAAATTTTATAAAGGAACACACATTTTTTTTTTTT [CACACA_site8740]	9.2
TATTTTAATATGTATACATGCATACCTACTCATACA [TGCATGCA_site779]	9.05
TAGACAAAATATAATGCACACTATTATTTTTATTTA [CACACA_site5508]	9.18
AAAAAAGTTGTATTTGCACACATAAAAAAAAGATAT [CACACA_site3839]	9.53

Sequence	gcPBM binding intensity (ln)
AATTTAAAAATGGACACACACAAAAAATAATACTTA [CACACA_site250]	9.89
GTATATTATATTGGGTGTACCATATATAATATAATC [XGTACX_site8579]	9.19
AAAAATTAACAAAAGGTGCAATTTATTTATTAACGG	9.26
TTATAAATAAAAAATACACACATATATATATATATA [CACACA_site207]	9.3
ACTAAACTTTTATGTACACACATATAACATTAATTT [CACACA_site5276]	9.62
TACAAAATGGGGAACACACACATATATATATATATA [CACACA_site3844]	9.54
TTGGTACCTATAGATACACACATATATACCTATATA [CACACA_site5812]	9.4
TACGTAAAAATAGGACGTACTTATTTAGAAACCATA [XGTACX_site2498]	9.17
AAATATTATAGCACCACACACTTATTTTATTTATAT [CACACA_site7133]	9.71
AGAAAGAAAGAATACACACACACATATATAAATATC [CACACA_site7716]	10.2
ATTATCAATATGAAGGTGCATTTAAATAATATTTAC	9.18
TATATTCTTTATAGGTGTACTTAATAAATAAAAAAT [XGTACX_site5378]	9.02
TATATATATGTGTTTACACACAATAATGAATTAAAA [CACACA_site4659]	9.4
TATGAACATAAATTTGCACACTGGATATAATATATA [CACACA_site2155]	9.36
TATCTAGTTACTCCTTGTACATAATAAATGATTTTT [XGTACX_site5674]	9.23
AAAAAAAAAAAATGTGTGCACATTATTTCAACTTAA	9.32
TATATATATAATATTGCACACAAAATTAAAAGTAAA [CACACA_site7889]	9.47
TATTTTATCTATTTGTGTACTTATATTTATGCAAAA [XGTACX_site1499]	9.29
AAATTATTAAAAAAAAGTACATATATATATATATAT [XGTACX_site8313]	8.93
ATAAATAATATATATACACACATATCTATACATATT [CACACA_site487]	9.54
ATAATACACGATTATTTTCCCTTTATGTAAATATAT [CACACA_negctrl_site1107]	9.3
